# The supplement of paper PMC10338343
# ± gives the standard deviation. The entries are a selection whose mix differs from that of the whole data set.
# System: MIWI (PIWIL1) piRISC loaded with L1MC piRNA (30 nt)
# Test: pre-steady-state target cleavage rate (min^-1); MIWI and MILI are mouse PIWI proteins and EfPiwi is from a freshwater sponge; tags in brackets are library labels; higher = faster piRNA-guided slicing of the target
# Conditions: guide: L1MC piRNA 5'p-UAACUAAAUACUAUGCAAGCUGUAGGUCCU; auxiliary factor: 500 nM mouse GTSF1
# How it was run: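 The pre-steady-state cleavage rate was calculated from a burst-and-steady-state fit. Data came from Cleave-'n-Seq, in which […] transcribed, DNA-blocked target RNA library was mixed with 1 nM active affinity-purified piRISC carrying one synthetic guide, with or without 500 nM GTSF1 partner protein, in HEPES–potassium acetate buffer at 33 °C for 0–8 or 0–960 min. Uncleaved targets were sequenced and normalised to depth and to weakly complementary targets, three trials were pooled, and k3 was capped at 0.0001 min^-1.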
# 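Also: 1 nM active piRISC with 0.1 nM target library at 33 °C single turnover.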
row,Sequence,pre-steady-state target cleavage rate
1,UCCUGGAUGUCCUUGCAUAGUAUUUACAUA,0.0139 ± 0.0063
2,UCCUCCUACAGCAAGCAUAGUAUUUACAAA,0.335 ± 0.059
3,UCCACCUACAGCUUGCAUAGUAAUAAGUUA,0.365 ± 0.042
4,UCCUGGAUGUCCAUGCAUAGUUUUUAGUUA,0.00744 ± 0.0031
5,UGGACCUACAGCUUCGAUAGUAUUUAGUUA,0.807 ± 0.087
6,AGCACCUACAGCUUGCAUAGUAUUAAGUUA,1.22 ± 0.17
7,UCCACCUACAGCUUCCAUAGUAUUUACAAA,0.0165 ± 0.008
8,UCCUGGUACAGCUUGCAUUCUAUUUAGUUA,0.116 ± 0.041
9,UCCUGGUACAGCUACGAUAGUAUUUAGUUA,0.0384 ± 0.0077
10,UCCUGGAUGUCGAAGCAUAGUAUUUAGUUA [g2:g16:cont:t1A],0.0133 ± 0.0028
11,AGGUGCUACAGCUUGCAUAGUAUUUUCAAA,0.162 ± 0.034
12,AGGACCUACAGCUACCAUAGUAUUUACAAA,0.0118 ± 0.0057
13,UCGACCUACAGCUUCCAUAGAAUUUAGUUA,0.0287 ± 0.012
14,UCCACCAUCAGCUUGCAUAGUAUUUUCAAA,0.273 ± 0.032
